Hit rate of the full screen: of about 52,000 compounds, about 1,700 (3.3%) were called active. No stated cut-off is given here; in the data, active means survival mostly below about 52% (no sharp cut-off); inactive means mostly above about 56%. The list shows a part of the results.

The assay deals with Wild type. Put plainly: growth inhibition of S. aureus wild type versus tarO mutant, primary screen, teichoic acid synthesis inhibitors, RN4220, OD600 (AID 463173). The following applies: S. aureus RN4220 wild type/DeltatarO growth, OD600, 18 h, active compounds read low, screened at 18.75 µg/mL (by protocol).
In the case of `Cc1cc(C)cc(NC(=O)C(=O)NCC(c2ccc3c(c2)OCO3)N2CCOCC2)c1` (stereo not drawn), the survival is inactive: 94%. To `COCCN1Cc2cccc(C(=O)Nc3ccc(C)c(F)c3)c2C1=O` belongs inactive: 77%; to `COc1ccc(Nc2nc3c(S(=O)(=O)c4ccccc4)nnn3c3ccc(Cl)cc23)c(OC)c1`, inactive: 116%.

As for `Fc1ccc(-c2cc(-c3nc(-c4ccccc4)no3)[nH]n2)cc1`, the survival is inactive: 75%. Next, `CC(C)c1ccc(NC(=O)c2cn(C3CCCCC3)c(=O)c3c2c2ccccc2n3C)cc1`: inactive: 86%; `Cc1ccccc1CNC(=O)c1cccc(NC(=O)c2nsc3ccccc23)c1`: inactive: 51%; `COc1ccc(-c2nc(C)c(CCNC(=O)c3ccc(F)c(F)c3)s2)cc1`: inactive: 71%.

With `Cc1ccccc1NC(=O)N1CCc2cc(S(=O)(=O)N3CCC(C)CC3)ccc21`, the survival was inactive: 82%.

For the compound `CCCC(=O)Nc1ccc2nc(SCC(=O)N3CCCC3)sc2c1`, the survival is inactive: 111%. Consider `CC(C)Cn1cc(NC(=O)NCc2ccccc2)c2ccccc2c1=O`, for which the survival was inactive: 83%.

`CC(C)OC(=O)CSc1nc2cccnc2n1C1CCCCC1`: the survival was inactive: 102%. With `Cc1ccc2c(c1)c1c(c(=O)n(-c3cccc(Cl)c3)c(=O)n1CC(=O)c1ccc(Cl)cc1)n2C`, the survival is inactive: 131%. As for `Cc1nc2nc(SCC(=O)Nc3cccc(Cl)c3)nn2c(C)c1Cc1ccccc1`, the survival is inactive: 80%. Next, `COc1ccccc1C1=NS(=O)(=O)N(C)C(C(=O)Nc2cc(OC)c(OC)c(OC)c2)=C1`: inactive: 85%; `COc1ccc(N2C(=O)CSC23C(=O)N(Cc2ccccc2F)c2ccccc23)cc1Cl` (stereo not drawn): inactive: 68%; `O=S(=O)(NCc1ccccc1Cl)c1ccc(-c2cnc(C3CC3)o2)cc1`: inactive: 75%. With `CCC1=Nc2cc(C(=O)NCc3ccccc3OC)ccc2Sc2ccc(Cl)cc21`, the survival is inactive: 78%. Next, `Cc1c(CC(=O)N2CCCCC2)c(=O)oc2cc3occ(C(C)(C)C)c3cc12`: inactive: 83%. To `COc1ccc(-c2cn3cccnc3n2)cc1NC(=O)COc1ccccc1` belongs inactive: 84%; to `O=C(CSc1ccccc1)Nc1c[nH]c(=O)[nH]c1=O`, inactive: 101%. To `CC(=O)N(Cc1cc2cc(C)ccc2[nH]c1=O)C1CCCC1` belongs inactive: 117%; to `CC1(C2CCC3C4CCC5CC6(C/C(=N\O)C5(C)C4C(O)CC32C)OCCO6)OCCO1` (stereo not drawn), inactive: 99%; to `COCCNc1ncnc2c1cnn2-c1cc(Cl)ccc1C`, inactive: 84%. Turning to `Cc1cc(C)c2c(n1)SCC(=O)N2CC(=O)Nc1ccc(C)c(C)c1`, the survival is inactive: 123%. On to `CN1CCN(C(c2ccc(Cl)cc2Cl)c2sc3nc(-c4ccco4)nn3c2O)CC1` (stereo not drawn), for which the survival is inactive: 81%.

For `Cn1nc(C(=O)NCc2cccc(Cl)c2)c2c1-c1ccccc1SC2`, the survival was inactive: 81%. To `CCC(=O)N1c2ccccc2CC1C(=O)NCCc1ccccc1Cl` (stereo not drawn) belongs inactive: 135%; to `Cc1ccc(S(=O)(=O)C2(C(=O)Nc3ccc(C)c(Cl)c3)CC2)cc1`, active: 4%. Next, `Cc1ccc(OCC(=O)Nc2ccc(OCc3cc(=O)n4ccsc4n3)cc2)cc1`: inactive: 89%; `CC(C)(C)C(=O)NC1(C(F)(F)F)NC(=O)N(c2ccc(F)cc2)C1=O` (stereo not drawn): inactive: 68%.

Consider `COc1ccc(N2CCN(c3ncnc4c3cnn4-c3ccc(C)c(Cl)c3)CC2)cc1`, for which the survival is inactive: 80%. Next, `Cc1ccc(Cl)cc1N1CCN(C(=O)CN2C(=O)COc3ccc(S(=O)(=O)N4CCC(C)CC4)cc32)CC1`: inactive: 79%; `Cc1ccc(CNC(=O)CCS(=O)(=O)c2cc3c(cc2Cl)NC(=O)CO3)cc1`: inactive: 88%. Next, `COc1ccc(N2CCN(CC(O)COc3ccc(C)cc3C)CC2)cc1` (stereo not drawn): inactive: 87%; `CC1=C(c2ccc(C)cc2)S(=O)(=O)NC1=NCCCN1CCN(c2cc(C)ccc2C)CC1`: inactive: 120%.

For the compound `O=C(NCc1ccc(Cl)cc1)c1ccc(NC(=O)N2CC3CCCN3c3ccccc32)cc1` (stereo not drawn), the survival was inactive: 83%. For the compound `CCOC(=O)CN(Cc1ccccc1)C(C(=O)NC1CCCCC1)c1ccc(C)cc1` (stereo not drawn), the survival is active: -2%. Regarding `CCOC(=O)C1CCN(C(=O)Cn2c(-c3cccs3)cc3cc(Cl)ccc32)CC1`, the survival was inactive: 74%. As to `COc1ccc(CNC(=O)c2ccc(-c3nc(CSc4ccc(C)cc4)c(C)o3)cc2)cc1OC`, the survival was active: -3%. Consider `Cc1nn(C(=O)c2ccccc2)c(C)c1S(=O)(=O)N1CCOCC1`, for which the survival was inactive: 83%. For `CCC(=O)N1CCc2cc(S(=O)(=O)NC(C(=O)NCc3ccccc3Cl)C(C)C)ccc21` (stereo not drawn), the survival is inactive: 84%.

As for `Cc1c(C(=O)NCc2ccccc2Cl)sc2nc(-c3ccc(F)cc3)cn12`, the survival is inactive: 86%. To `O=C(NCc1ccc(F)cc1)c1cc(Sc2ccc(F)cc2F)nc2ccccc12` belongs inactive: 73%; to `CCOc1ccccc1CNS(=O)(=O)c1ccc2c(c1)C(C)(C)C(=O)N2C`, inactive: 119%; to `NC(N)=NC(=O)c1ccc(N)cc1`, inactive: 112%. To `Cc1ccc(C)c(NS(=O)(=O)c2ccc3oc(=O)c4ncn(C)c4c3c2)c1` belongs inactive: 72%; to `CCn1c(=O)c2sccc2n2c(CCC(=O)Nc3ccc(C(C)C)cc3)nnc12`, inactive: 72%. Turning to `Cc1ccc(N(C)C(=O)C2CCN(S(=O)(=O)c3cn(C)cn3)CC2)cc1`, the survival was active: 10%.

As to `CCn1c(=O)c2cc(C(=O)NCCc3ccc(Cl)cc3)sc2c2ccccc21`, the survival was inactive: 79%. Regarding `CCc1nnc(SC(CC)C(=O)Nc2cc(C)ccc2C)c2cc3occc3n12` (stereo not drawn), the survival was inactive: 85%.

As to `COc1ccc(OCC(=O)NC(Cc2c[nH]c3ccccc23)C(=O)O)cc1` (stereo not drawn), the survival was inactive: 77%. To `CC1CCN(CCCNC(=O)CN2C(=O)CSc3ccc(S(=O)(=O)N4CCOCC4)cc32)CC1` belongs inactive: 71%; to `COc1ccc(NC(=O)c2cc3c(=O)n(Cc4cccnc4)ccc3nc2C)c(OC)c1`, inactive: 88%. To `Cc1ccc(NC(=O)c2c(C)oc3ncn(CC(C)C)c(=O)c23)nc1` belongs inactive: 129%; to `Cc1ccc2nc3c(cc(C(=O)NCc4ccco4)c(=N)n3C(C)C)c(=O)n2c1`, inactive: 81%. Next, `CCSc1nc(NC(C)=O)nn1C(C)=O`: inactive: 103%; `Cc1cccc(CN2C(=O)c3ccccc3S(=O)(=O)c3ccc(C(=O)NC4CCCCC4)cc32)c1`: inactive: 91%; `COc1cccc2c(=O)cc(C)[nH]c12`: inactive: 108%. As to `CC(NC(=O)CSc1nc(-c2ccccc2F)nc2cc(=O)[nH]n12)c1nc2ccccc2n1C` (stereo not drawn), the survival was inactive: 78%. As to `CN1/C(=C2/SC(=O)N(Cc3ccccc3)C2=O)Sc2ccccc21`, the survival is inactive: 118%. Next, `O=C(Nc1ccc(N2CCOCC2)c(C(=O)O)c1)c1ccc(Br)cc1`: active: 0%; `Cc1ccc(CNC(=O)Cn2ccn(-c3ccc(F)cc3)c(=O)c2=O)cc1`: inactive: 83%; `CCC(=O)N1CCCc2cc(S(=O)(=O)N3CCC(C(=O)Nc4ccc(C#N)cc4)CC3)ccc21`: inactive: 140%.

Regarding `Cc1cccc2c(=O)cc(CSc3ccccc3NC(=O)C(C)(C)C)[nH]c12`, the survival is inactive: 124%.

For `CCOC(=O)c1cc(S(=O)(=O)NCc2ccc(OC)cc2)[nH]n1`, the survival was inactive: 72%.

For `COc1ccc(OCc2ccc(-c3nc(C#N)c(NCc4cccnc4)o3)o2)cc1`, the survival is inactive: 81%. With `CCCC(=O)Nc1ccccc1C(=O)OCc1cc(=O)n2nc(C(C)C)sc2n1`, the survival is inactive: 125%. In the case of `CC(=O)c1cccc(NC(=O)Cn2cc(C(=O)c3cccc(Cl)c3)c(=O)c3ccc(C)nc32)c1`, the survival was inactive: 75%. To `COc1ccc(OC)c(S(=O)(=O)N2CCN(Cc3nc4ccc(C)cc4o3)CC2)c1` belongs inactive: 71%. Next, `CCN(C(=O)Cn1c(=O)n(Cc2ccc3c(c2)OCO3)c(=O)c2ccc(C(=O)NC3CCCCC3)cc21)c1cccc(C)c1`: inactive: 86%; `COC(=O)c1ccc(-n2c(/C=C/c3cc(OC)c(OC)c(OC)c3)nc3cc(Cl)ccc3c2=O)cc1`: inactive: 71%; `Cc1cc(C)cc(NC(=O)N2CCN(C(=O)c3nsc4ccccc34)CC2)c1`: inactive: 78%.

Consider `COc1cc(NC(=O)Cn2nnnc2-c2ccccc2F)cc(OC)c1OC`, for which the survival was inactive: 86%. To `Cc1ccc(CNC(=O)CCc2nc3cccnc3n2Cc2ccccc2)cc1` belongs inactive: 86%; to `CC(=O)Nc1ccc(NC(=O)C(NS(=O)(=O)c2ccc(Br)s2)c2ccccc2)cc1` (stereo not drawn), inactive: 78%. `Cc1ccc(Cn2cc(S(=O)(=O)c3ccc(Cl)cc3)c(=O)c3cc4c(cc32)OCO4)cc1`: the survival is inactive: 90%. Consider `COc1ccc(-c2cc3ccc(O)c(CN4CCCCC4C)c3oc2=O)cc1OC` (stereo not drawn), for which the survival is inactive: 76%.

With `CCOc1ccc2nc(N(Cc3cccnc3)C(C)=O)sc2c1`, the survival was inactive: 70%. On to `Cc1ccc(OCCSc2nc3ccc(NC(=O)c4ccco4)cc3s2)cc1`, for which the survival was inactive: 94%. With `O=C(CCNS(=O)(=O)c1ccc2c(c1)CCN2C(=O)C1CC1)N1CCN(c2cccc(C(F)(F)F)c2)CC1`, the survival is inactive: 75%. To `CCCc1ccc(OC(C)c2nc(-c3ccc(-n4cccc4)cc3)no2)cc1` (stereo not drawn) belongs inactive: 56%; to `COCc1oc2ccc(NS(=O)(=O)c3ccc(C)cc3)cc2c1C(=O)OC`, inactive: 73%; to `CC(=O)N1CCc2cc(S(=O)(=O)NC(Cc3ccccc3)C(=O)NCc3ccccc3Cl)ccc21` (stereo not drawn), inactive: 72%. Next, `Cn1c(=O)n(C)c2cc(N3CCOCC3)c(NS(=O)(=O)c3ccc(Cl)cc3)cc21`: inactive: 93%. To `COc1ccccc1N1CCN(C(=O)c2cc3c(-c4ccccc4F)nn(C)c3s2)CC1` belongs inactive: 28%; to `Cc1ccc(-n2c(=O)c3c(cnn3C)n(CC(=O)Nc3cccc(C)c3)c2=O)cc1`, inactive: 70%. With `CCOC(=O)C1CCN(C(=O)CSc2n[nH]c(-c3ccc(OC)cc3)n2)CC1`, the survival was inactive: 136%. Regarding `CCOC(=O)Cn1c(CN2CCN(c3ccc(OC)cc3)CC2)nc2c1c(=O)[nH]c(=O)n2C`, the survival was inactive: 73%.

(Values after PubChem BioAssay AID463173 (ICCB-Longwood Screening Facility, Harvard Medical School, 2010).)
